Results on six compounds are retold here after the supplement of paper PMC8512760.

The list shows a part of the results. Single values are uncertain, as repeats are few or missing.

Some test systems named below: HCC-1143; HCC-1187; SUM-149; MDA-468.
Holding throughout (assay): cell viability relative to vehicle (% of vehicle); basal-like triple-negative breast cancer lines; higher = less cytotoxic
Holding throughout (conditions): 10 µM; 72 h
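Note: stably firefly luciferase-GFP labeled cells in 96-well plates, viability read as luciferase photon flux after d-luciferin addition, treated wells normalized to vehicle wells, single-dose high-throughput screen.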

Take `CCC(=O)OCC(=O)C1(OC(=O)CC)C(C)CC2C3CCC4=CC(=O)C=CC4(C)C3(Cl)C(O)CC21C` (stereo not drawn) [Beclomethasone dipropionate]: the cell viability in the test with HCC-1143 worked out at 104; in the test with HCC-1187 it was 99.5; in the test with SUM-149, 167.

For `Nc1ccccc1NC(=O)c1ccc(CNC(=O)OCc2cccnc2)cc1` [Entinostat (MS-275,SNDX-275)], the cell viability with HCC-1143 was found to be 108; with HCC-1187, 37.7; with MDA-468 it was 53.5; in the test with SUM-149, 16.2.

Regarding `COC(=O)NC(C(=O)NC(Cc1ccccc1)C(O)CN(Cc1ccc(-c2ccccn2)cc1)NC(=O)C(NC(=O)OC)C(C)(C)C)C(C)(C)C` (stereo not drawn) [Atazanavir], the cell viability in the test with HCC-1143 worked out at 82.4; in the test with HCC-1187, 94; in the test with MDA-468, 98.9; in the test on SUM-149, 114.

For `CCCCCOc1ccc(-c2ccc(-c3ccc(C(=O)N[C@H]4C[C@@H](O)[C@@H](O)NC(=O)[C@@H]5[C@@H](O)[C@@H](C)CN5C(=O)[C@H]([C@@H](C)O)NC(=O)[C@H]([C@H](O)[C@@H](O)c5ccc(O)cc5)NC(=O)[C@@H]5C[C@@H](O)CN5C(=O)[C@H]([C@@H](C)O)NC4=O)cc3)cc2)cc1` [Anidulafungin], the cell viability is 72.2 in the test with HCC-1143, 27 in the test on HCC-1187, 52.1 in the test on MDA-468 and 40.7 in the test on SUM-149.

Turning to `CCN(CCO)CCCOc1ccc2c(Nc3cc(CC(=O)Nc4cccc(F)c4)[nH]n3)ncnc2c1` [Barasertib (AZD1152-HQPA)], the cell viability with HCC-1143 turned out to be 78.1; in the test on HCC-1187 it was 32.5; in the test with MDA-468, 56.3; with SUM-149, 136.

As to `Nc1nc(=O)c2c(CCc3ccc(C(=O)NC(CCC(=O)[O-])C(=O)[O-])cc3)c[nH]c2[nH]1.[Na+].[Na+]` (stereo not drawn) [Pemetrexed], the cell viability in the test on HCC-1143 is 66.6; in the test on HCC-1187 it was 90.7; with MDA-468 it was 62; in the test on SUM-149, 81.5.
